B1: LINE1-mini (parent)
chain: GGCAGAGCUCAACACAGCGUGGCAAAGUGGCUGUGGCUAGACUGCC

Read counts are not given, so values of variants with three or more changes are uncertain.

In the series the parent is B1. The series is described as follows: self-cleavage, relative activity (ratio to wild type); higher = more cleavage; in vitro, sequencing; the parent is a self-cleaving ribozyme.
Take C3U G7U A14U G19U U28A: the self-cleavage was found to be 0.11.

As for C3U C10A A25C, the self-cleavage is 0.08.

On to C3U C23A C31A, for which the self-cleavage came to 0.13.

Turning to A4C A11U C15A, the self-cleavage is 0.07.

Turning to A4C C23U G30U C31U U38A G44A, the self-cleavage came out at 0.

For the variant C3U G5A U9A, the self-cleavage turned out to be 0.11.

As to C3U G29A U38G, the self-cleavage is 0.03.

Consider A4C A16C G21A, for which the self-cleavage was found to be 0.07.

Regarding C3U G21U U28A G30A G44U, the self-cleavage came to 0.12.

In the case of A4C C8A G40A, the self-cleavage is 0.05.

For the variant C3U A16G G17C A24C G29A C42G, the self-cleavage turned out to be 0.01.

C3U A24C C45G: the self-cleavage is 0.77.

Turning to A4C C15A G33C, the self-cleavage came out at 0.

On to C3U G5U G27A, for which the self-cleavage is 0.03.

As for C3U G21C G22A C23A G35C U43A, the self-cleavage worked out at 0.06.

Consider A4C A14U A16C C23A A24U U32A C37U, for which the self-cleavage is 0.08.

Consider C3U A16G A41G G44A, for which the self-cleavage was found to be 0.05.

With C3U U20C A24G G29A, the self-cleavage came to 0.44.

Take C3U G29A C37U C45U: the self-cleavage is 0.14.

As for C3U C10A U32A A39U G40U, the self-cleavage was 0.01.

C3U C10U A16G: the self-cleavage came to 0.08.

As to C3U G22A A26U U38G, the self-cleavage worked out at 0.01.

For C3U G7A U9C U28G G33C U34C G40A, the self-cleavage was 0.02.

For the variant C3U G5U C10A U32G, the self-cleavage came to 0.02.

In the case of C3U U20G U28G G40C, the self-cleavage amounted to 0.

Consider C3U G29U U38G, for which the self-cleavage was 0.03.

On to A4C C10A C13G, for which the self-cleavage was found to be 0.02.

With A4C C18U G19U G22A, the self-cleavage is 0.06.

C3U A16U A24C G36U: the self-cleavage was 0.12.

With C3U G5U G22U C46A, the self-cleavage came to 0.3.

In the case of C3U C13U G33A C37A, the self-cleavage stood at 0.07.

Take A4C A12G C42U C46U: the self-cleavage was determined as 0.02.

As for C3U U32C U38C, the self-cleavage amounted to 0.15.

Take C3U G5C A6C C10U C31G U34A: the self-cleavage is 0.03.

With C3U G19A G27C G33A C37G, the self-cleavage was determined as 0.08.

In the case of A4C C8G A39G, the self-cleavage was determined as 0.01.

Turning to C3U U20G C42A, the self-cleavage is 0.06.

For C3U U20G C42U, the self-cleavage is 0.03.

C3U C10U G27U C31A: the self-cleavage was 0.16.

As for A4C A24U A25G G30C C45U, the self-cleavage stood at 0.11.

In the case of C3U U20G G22C U28C C31U C46U, the self-cleavage was determined as 0.14.

For C3U C8A G36A, the self-cleavage stood at 0.65.

Consider C3U G17C A25G G29A G35C G40U C45G, for which the self-cleavage is 0.01.

In the case of C3U G19A A26G G30A, the self-cleavage worked out at 0.45.

Consider A4C A24C U38G, for which the self-cleavage worked out at 0.02.

As for C3U G7U C23A G29A G33C, the self-cleavage came out at 0.13.

For the variant C3U C13U G40A U43C, the self-cleavage came to 0.03.

As to C3U C18A U28G, the self-cleavage turned out to be 0.29.

C3U C13A G21A G30U: the self-cleavage came to 0.22.

On to C3U G5C G17A C18A C31A G40A, for which the self-cleavage worked out at 0.02.

As to C3U G5U U32G, the self-cleavage was 0.05.

For C3U G5U A12U, the self-cleavage is 0.1.

Turning to C3U G5U A6G A41G, the self-cleavage turned out to be 0.06.

For C3U G7U A14U C18G U28G G36U G40A A41G, the self-cleavage came to 0.01.

In the case of C3U G7A G35U, the self-cleavage came to 0.54.

Consider C3U C8G U38A, for which the self-cleavage came out at 0.25.

As for C3U C8A G22A A24U G35C, the self-cleavage turned out to be 0.06.

For the variant C3U C23U U28G U34G, the self-cleavage was determined as 0.04.

Consider C3U G29A G30A G33U, for which the self-cleavage came to 0.14.

With C3U C8G C23U U34C G36A, the self-cleavage was 0.03.

With C3U G27U U32C U38C G44C, the self-cleavage came to 0.06.

Take C3U U9G G35A C37G: the self-cleavage worked out at 0.27.

A4C C10G A12G U34A A41C C42U: the self-cleavage stood at 0.03.

Take C3U C8A G22U A25G G33A A41U: the self-cleavage was 0.48.

A4C C10U G29C C45A: the self-cleavage was 0.02.

For C3U G5C U20A G21U C45G C46G, the self-cleavage was 0.02.

Take C3U G7C G17C G36A C37G: the self-cleavage is 0.08.

As to C3U C18U G22U C46G, the self-cleavage was determined as 0.34.

Regarding A4C A6G C10U C13U A26C G36C, the self-cleavage amounted to 0.02.

For A4C C31U C45G, the self-cleavage is 0.03.

Consider A4C A16C G22A C37U A41C G44U, for which the self-cleavage is 0.1.

As for C3U C13G G29C G33A A39U, the self-cleavage was found to be 0.02.

For the variant C3U C8A G33A, the self-cleavage is 0.57.

In the case of C3U A14U G19U U20G C23U A25U, the self-cleavage is 0.47.

For C3U G7A G19C G30A C37A A41C, the self-cleavage came to 0.21.

In the case of C3U C8G A25U A39C C46A, the self-cleavage turned out to be 0.04.

With C3U G7U G17A, the self-cleavage was 0.16.

As to C3U U9G U38G, the self-cleavage was 0.15.

Consider C3U C10U C18U A24C, for which the self-cleavage amounted to 0.1.

With A4C C15A C18G G27C U38G, the self-cleavage is 0.07.

On to C3U G7C G27C U38G A41U G44U, for which the self-cleavage was 0.

Turning to A4C A11G G21A A24U G33U, the self-cleavage came out at 0.

Consider A4C C10G C18A G33A U43C C45G, for which the self-cleavage was 0.

For the variant A4C A6C U9G, the self-cleavage amounted to 0.05.

Regarding C3U C13G C31A C42U C46U, the self-cleavage worked out at 0.13.

Turning to C3U C8G G27A G29U U43C, the self-cleavage was found to be 0.02.

A4C A14U A24C A26U: the self-cleavage was determined as 0.05.

With A4C A24C G33C, the self-cleavage came out at 0.

As for C3U C23A G33U, the self-cleavage amounted to 0.08.

In the case of C3U C18G U20A G36U U43C, the self-cleavage stood at 0.45.

Turning to C3U C10U G29U, the self-cleavage was 0.2.

Consider C3U U20C C46U, for which the self-cleavage came to 0.12.

In the case of C3U A24G U38G, the self-cleavage was determined as 0.02.

As for C3U G5C A6G C31U, the self-cleavage came to 0.03.

In the case of C3U C15U C42A, the self-cleavage came out at 0.56.

For the variant C3U G7A A39C, the self-cleavage stood at 0.22.

On to C3U G7C C10A C23G A25C U34A, for which the self-cleavage turned out to be 0.04.

C3U G29A C31A: the self-cleavage was 0.15.

Regarding A4C C10G G30C, the self-cleavage came to 0.03.

On to A4C C23U C31A A39C, for which the self-cleavage was determined as 0.01.

In the case of A4C A14C G33C, the self-cleavage is 0.07.

As for C3U G5C U9A A39C C45U, the self-cleavage amounted to 0.1.

Regarding C3U C15A G27U, the self-cleavage came to 0.07.

C3U G19U U20G G27A A41G C46U: the self-cleavage is 0.03.

With C3U U28C C45G, the self-cleavage stood at 0.05.

Turning to A4C C10A U20C G22U, the self-cleavage came to 0.02.

Consider C3U A24C C37U U38A, for which the self-cleavage was found to be 0.05.

Regarding C3U A16G U20G G29A U32G G33C C37A U43G, the self-cleavage came out at 0.01.

Turning to C3U C13G C15A G21A, the self-cleavage was determined as 0.21.

With C3U U9A A14U C18A U20A C31A, the self-cleavage was determined as 0.04.

In the case of C3U A14G U28C G33A, the self-cleavage was 0.16.

For the variant C3U C15G G17C C18G U28C C31A C37G G44U, the self-cleavage was found to be 0.01.

With A4C C13G U20C C37G, the self-cleavage was found to be 0.02.

As for C3U C15U G21C G27C, the self-cleavage was determined as 0.36.

For C3U A26U G35C C45A, the self-cleavage came out at 0.04.

Take C3U G5C C18U G19C: the self-cleavage came out at 0.04.

In the case of A4C A6U G7C C15U, the self-cleavage was determined as 0.08.

With A4C A6G U20G U34C G36C, the self-cleavage came out at 0.05.

C3U U9C A14U U34C: the self-cleavage was 0.02.

Consider A4C C18G G27C C31A U38G, for which the self-cleavage was 0.06.

For the variant A4C C31G C45U, the self-cleavage is 0.02.

In the case of A4C A24U A39G U43C C45G, the self-cleavage came out at 0.

As to C3U U28C A41G, the self-cleavage was determined as 0.06.

Take C3U C8G C15A C18A C23G: the self-cleavage was determined as 0.06.

Consider A4C C23A G36A G44U, for which the self-cleavage amounted to 0.35.

Consider A4C C18U C46A, for which the self-cleavage came out at 0.12.

In the case of C3U C8A C10G A14U U34C C46U, the self-cleavage stood at 0.04.

On to C3U G33C G40C, for which the self-cleavage is 0.04.

Take C3U C10A G21A C37U: the self-cleavage came to 0.01.

C3U C8U A12U A25C C37A: the self-cleavage was determined as 0.14.

For the variant C3U C13G A16U U20G G33U, the self-cleavage worked out at 0.05.

Consider C3U C10G G44U, for which the self-cleavage was determined as 0.01.

For C3U C8U G21A A25U G33A, the self-cleavage worked out at 0.29.

For the variant A4C A6G A12G C31A G36U C37U, the self-cleavage was found to be 0.08.

With C3U C8A C23U A24C, the self-cleavage came out at 0.37.

On to A4C C8U G17U, for which the self-cleavage was 0.36.

With C3U C13A G22A U34A C45G, the self-cleavage came out at 0.42.

Take A4C A11G A12C A25C G33A C45A: the self-cleavage was 0.

As to C3U G35U G40A, the self-cleavage was 0.11.

Take A4C C10G A14U G19A: the self-cleavage is 0.02.

As for A4C A16C G22U A26U A39U U43G C46G, the self-cleavage was 0.15.

In the case of C3U A16C G30C U32G G35U U38G, the self-cleavage was 0.17.

As for C3U C8G A14C G19A U20G G33U A41U C42A, the self-cleavage was 0.02.

In the case of C3U C18U A25G, the self-cleavage came to 0.05.

Consider C3U G17A C18A C42U, for which the self-cleavage amounted to 0.03.

Regarding A4C C10A C15U G19C, the self-cleavage is 0.17.

Consider A4C A25C C31G, for which the self-cleavage stood at 0.04.

Consider C3U C15A C37U, for which the self-cleavage amounted to 0.05.

Consider A4C C10A A14C A39U, for which the self-cleavage came to 0.01.

Regarding C3U G21U G27A C45U, the self-cleavage came to 0.1.

Regarding C3U C10U G21U C31G, the self-cleavage was 0.02.

Take A4C A39G C45U: the self-cleavage was 0.06.

On to C3U U9G A11C G22U U32G, for which the self-cleavage amounted to 0.

As for C3U G27C G33A, the self-cleavage turned out to be 0.22.

On to A4C C23A C31U, for which the self-cleavage is 0.01.

In the case of A4C A6C G27A C45U, the self-cleavage was 0.04.

Turning to A4C C8G G17A G40C C45G, the self-cleavage came to 0.06.

Turning to C3U C31A A39C C45A, the self-cleavage is 0.

With C3U G7A C18G, the self-cleavage was 0.1.

In the case of A4C A14U G27C G33U, the self-cleavage was 0.02.

As to C3U U28G U38C, the self-cleavage was 0.43.

For A4C A12U U32G G44A, the self-cleavage is 0.12.

As to A4C A25C G27U G29U C45G, the self-cleavage is 0.01.

On to A4C A12G G21A, for which the self-cleavage was found to be 0.08.

As to C3U G30C C46G, the self-cleavage worked out at 0.24.

With C3U G5C G17U U38C, the self-cleavage stood at 0.05.

As to C3U U28G G33U U43A, the self-cleavage is 0.01.

Source of the values: the RNAGym collection of RNA variant scans (doi:10.7554/elife.90254).
